Measurements taken from PubChem BioAssay (Tox21).
Active and inactive are the calls of the source. Unless noted, calls follow the shape of the dose curve; as a rule, active = well fitted curve in the direction sought with a large enough effect in the repeat runs; inconclusive = weak or mixed curves; inactive = no such curve, though single readings can be large; an effect the other way counts as inactive or inconclusive. Square brackets hold non-standard residues; d marks the D form. Peptide text beside a SMILES is read from it. Orn = NCCC[C@H](N)C(=O)O

Legend:
[1] = qHTS assay for small molecule agonists of the p53 signaling pathway (AID 651631; calls by dose curve; also: nearly all actives have a fitted effect of over 15% in size; also: potency is read from the fitted curve at half-maximal effect; as to activation: % is scaled to controls: 0 for no effect and ±100 for the full control effect); settings: HCT-116 p53RE-bla reporter, beta-lactamase FRET ratio, 16 h; activation: at 73.3 µM (top of the series) unless noted
How it was run: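 We treat p53RE-bla HCT-116 cells with compounds for 16 h at 37 °C, add LiveBLAzer B/G FRET substrate for 2 h at room temperature, and measure fluorescence intensity.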

[2] = qHTS assay for small molecule disruptors of the mitochondrial membrane potential (AID 720635); settings: HepG2 mitochondrial membrane potential, Mito-MPS dye ratio; also: potency is read from the fitted curve at half-maximal effect; as to ratio activity, negative = MMP loss: % is scaled to controls: 0 for no effect and ±100 for the full control effect
How it was run: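 HepG2 cells exposed to compound 1 hr at 37C, then Mito-MPS dye 30 min. Ratio read of aggregate (540/590 nm) versus monomer (490/535 nm) fluorescence.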

[3] = molecular target: Glucocorticoid receptor (Homo sapiens) (UniProt P04150); experiment: qHTS assay to identify small molecule agonists of the glucocorticoid receptor (GR) signaling pathway (AID 720691; active = well fitted activation curve with a large enough effect in the signal ratio in the repeat runs, not every such curve was filed as active; inconclusive = weak or mixed curves, or effect the other way; inactive = no such curve, though single readings can be large or run the other way; the % refers to the signal ratio; also: potency is read from the fitted curve at half-maximal effect); settings: GR-bla HeLa, beta-lactamase reporter ratio, 18 h; activation: at 62.4 µM (top of the series) unless noted
How it was run: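 Reporter read-out: fluorescence intensity following 2 h room-temperature LiveBLAzer B/G FRET substrate loading. Prior step: GR-bla HeLa cells held 4 h, then treated 18 h at 37 C.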

[4] = molecular target: Glucocorticoid receptor (Homo sapiens) (UniProt P04150); experiment: qHTS assay to identify small molecule antagonists of the glucocorticoid receptor (GR) signaling pathway (AID 720692; active = well fitted inhibition curve with a large enough effect in the signal ratio in the repeat runs, not every such curve was filed as active; inconclusive = weak or mixed curves, or effect the other way; inactive = no such curve, though single readings can be large or run the other way; the % refers to the signal ratio; also: potency is read from the fitted curve at half-maximal effect); settings: GR-bla HeLa, beta-lactamase FRET ratio, dexamethasone-stimulated, 18 h; activity change, negative = inhibition: at 58.5 µM (top of the series) unless noted
How it was run: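 Dexamethasone (5 nM final) stimulated a stably integrated GRE-beta-lactamase reporter in HeLa cells during 18 h co-incubation with compounds; signal was quantified as fluorescence intensity of B/G FRET substrate after 2 h.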

[5] = qHTS assay for identifying genotoxic compounds that show differential cytotoxicity against isogenic chicken DT40 cell lines with known DNA damage response pathways - Rad54/Ku70 mutant cell line (AID 743015); settings: DT40 Rad54/Ku70 mutant viability, CellTiter-Glo, 40 h; activity change, negative = cytotoxicity: at 66.8 µM (top of the series) unless noted; also: nearly all actives have a fitted effect of over 60% in size; also: potency is read from the fitted curve at half-maximal effect
[6] = qHTS assay to identify small molecule antagonists of the thyroid receptor (TR) signaling pathway - cell viability counter screen (AID 743064); settings: GH3.TRE-Luc viability, CellTiter-Fluor, 24 h; activity change, negative = cytotoxic: at 70.3 µM (top of the series) unless noted; also: nearly all actives have a fitted effect of over 50% in size; also: potency is read from the fitted curve at half-maximal effect; as to activity change, negative = cytotoxic: % is scaled to controls: 0 for no effect and ±100 for the full control effect
How it was run: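 In rat pituitary GH3.TRE-Luc reporter cells co-exposed to compound and 1 nM T3 for 23.5 h, cytotoxicity was assessed with CellTiter-Fluor in the same wells, read by fluorescence.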

[7] = qHTS assay to identify small molecule antagonists of the estrogen receptor alpha (ER-alpha) signaling pathway using the BG1 cell line (AID 743080; calls by dose curve;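 also: BG1 cells stimulated with 17beta-estradiol alongside compound; nearly all actives have a fitted effect of over 25% in size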; also: potency is read from the fitted curve at half-maximal effect); settings: BG1Luc4E2 ERE-luciferase antagonist mode, luminescence; activity change, negative = inhibition: at 70.3 µM (top of the series) unless noted
How it was run: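 Endogenous full-length ER-alpha in BG1-Luc-4E2 cells drives a stably integrated 4×ERE luciferase gene; compounds were tested against 17beta-estradiol over 21.5 h, with luminescence and multiplexed viability fluorescence recorded.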

[8] = qHTS assay to identify aromatase inhibitors - cell viability counter screen (AID 743084); settings: MCF-7 aro ERE viability, CellTiter-Fluor, 24 h; activity change, negative = cytotoxicity: at 70.3 µM (top of the series) unless noted;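 also: cells stimulated with testosterone during compound exposure; potency is read from the fitted curve at half-maximal effect; nearly all actives have a fitted effect of over 55% in size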
[9] = qHTS assay to identify small molecule antagonists of the androgen receptor (AR) signaling pathway using the MDA cell line - cell viability counter screen (AID 743041; also: nearly all actives have a fitted effect of over 45% in size; also: potency is read from the fitted curve at half-maximal effect); settings: MDA-kb2 viability, CellTiter-Fluor, 16 h, cells co-treated with R1881 androgen agonist; viability change, negative = cytotoxic: at 70.3 µM (top of the series)
How it was run: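 MDA-kb2 AR-luc cells (MMTV-luciferase, AR/GR responsive) treated with compounds plus R1881 agonist for 16 h at 37C. CellTiter-Fluor added at 15.5 h; fluorescence read after 30 min in the same wells.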

[10] = molecular target: Estrogen receptor (Homo sapiens) (UniProt P03372); experiment: qHTS assay to identify small molecule antagonists of the estrogen receptor alpha (ER-alpha) signaling pathway (AID 743069; active = well fitted curve in the direction sought with a large enough effect in the signal ratio in the repeat runs, not every such curve was filed as active; inconclusive = weak or mixed curves, or effect the other way; inactive = no such curve, though single readings can be large or run the other way; the % refers to the signal ratio; also: potency is read from the fitted curve at half-maximal effect); settings: HEK293 ER-alpha-UAS-bla, beta-lactamase ratio, antagonist mode; activity, negative = inhibition: at 69.4 µM (top of the series) unless noted
How it was run: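 HEK293 ER-alpha-UAS-bla GripTite cells, held overnight in 2% charcoal-stripped FBS, 5,000 cells/well, preincubated 4 h, then compound plus 17beta-estradiol for 18 h at 37C. Beta-lactamase read by LiveBLAzer B/G FRET substrate, 2 h at room temperature.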

[11] = molecular target: Estrogen receptor (Homo sapiens) (UniProt P03372); experiment: qHTS assay to identify small molecule agonists of the estrogen receptor alpha (ER-alpha) signaling pathway using the BG1 cell line (AID 743079); settings: BG1Luc4E2 cells, ERE-luciferase agonist, 22 h; activation: at 70.3 µM (top of the series) unless noted; also: nearly all actives have a fitted effect of over 20% in size; also: potency is read from the fitted curve at half-maximal effect
[12] = qHTS assay to identify small molecule antagonists of the estrogen receptor alpha (ER-alpha) signaling pathway using the BG1 cell line - cell viability counter screen (AID 743081); settings: BG1Luc4E2 viability, CellTiter-Fluor, 22 h; activity change, negative = cytotoxicity: at 70.3 µM (top of the series) unless noted;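 also: compound given together with 17beta-estradiol as the ER stimulus; potency is read from the fitted curve at half-maximal effect; nearly all actives have a fitted effect of over 45% in size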
[13] = qHTS assay to identify small molecule antagonists of the glucocorticoid receptor (GR) signaling pathway - cell viability counter screen (AID 720693); settings: GR-bla HeLa viability, CellTiter-Glo luminescence, 18 h, with 5 nM dexamethasone present; viability change, negative = cytotoxic: at 58.5 µM (top of the series); also: potency is read from the fitted curve at half-maximal effect; nearly all actives have a fitted effect of over 55% in size
[14] = qHTS assay to identify small molecule antagonists of the androgen receptor (AR) signaling pathway - cell viability counter screen (AID 743033; also: potency is read from the fitted curve at half-maximal effect; nearly all actives have a fitted effect of over 45% in size); settings: AR-bla HEK293 viability, CellTiter-Glo luminescence, 16 h; activity change, negative = cytotoxicity: at 58.5 µM (top of the series) unless noted
[15] = qHTS assay to identify small molecule antagonists of the estrogen receptor alpha (ER-alpha) signaling pathway - cell viability counter screen (AID 743074; calls by dose curve;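 also: HEK293 cells carrying ER-alpha-UAS-bla reporter stimulated with 17beta-estradiol; potency is read from the fitted curve at half-maximal effect; nearly all actives have a fitted effect of over 45% in size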)
[16] = system: thyroid hormone receptor (rat, GH3 cells); experiment: qHTS assay to identify small molecule agonists of the thyroid receptor (TR) signaling pathway (AID 743066; calls by dose curve; also: % is scaled to controls: 0 for no effect and ±100 for the full control effect); settings: GH3.TRE-Luc cells, TR agonist luciferase, 24 h; activation: at 83.9 µM (top of the series) unless noted
[17] = molecular target: Peroxisome proliferator-activated receptor gamma (Homo sapiens) (UniProt P37231); experiment: qHTS assay to identify small molecule agonists of the peroxisome proliferator-activated receptor gamma (PPARg) signaling pathway (AID 743094; active = well fitted activation curve with a large enough effect in the signal ratio in the repeat runs, not every such curve was filed as active; inconclusive = weak or mixed curves, or effect the other way; inactive = no such curve, though single readings can be large or run the other way; the % refers to the signal ratio; also: potency is read from the fitted curve at half-maximal effect); settings: HEK293H PPARg-UAS-bla, beta-lactamase FRET ratio, 17 h; activation: at 57 µM (top of the series) unless noted
How it was run: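 Following 5 h plating at 37C, PPARg-bla HEK293H cells receive compound or DMSO for 17 h; fluorescence intensity is recorded after LiveBLAzer B/G loading for 1 h at room temperature.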

[18] = qHTS assay for identifying genotoxic compounds that show differential cytotoxicity against isogenic chicken DT40 cell lines with known DNA damage response pathways - Rev3 mutant cell line (AID 743014); settings: chicken DT40 Rev3-/- viability, CellTiter-Glo, 40 h; activity, negative = cytotoxicity: at 68.4 µM (top of the series) unless noted; also: nearly all actives have a fitted effect of over 55% in size; also: potency is read from the fitted curve at half-maximal effect
[19] = qHTS assay for identifying genotoxic compounds that show differential cytotoxicity against isogenic chicken DT40 cell lines with known DNA damage response pathways - wild type cell line (AID 743012); settings: DT40 wild type chicken cells viability, CellTiter-Glo, 40 h; activity change, negative = cytotoxicity: at 68.4 µM (top of the series) unless noted; also: potency is read from the fitted curve at half-maximal effect; nearly all actives have a fitted effect of over 60% in size
How it was run: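 Using parental DT40 (300 cells/well), compounds delivered in DMSO incubate 40 h at 37 C/5% CO2. CellTiter-Glo reagent then stands 30 min at room temperature, and luminescence gives cell viability.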

[20] = ratio activity, negative = MMP loss: at 83.2 µM (top of the series) unless noted
Tags tell the direction and shape of the fitted curve or compound fluorescence and quenching.

Sequence of UniProt P03372 (P03372 whole entry, looked up): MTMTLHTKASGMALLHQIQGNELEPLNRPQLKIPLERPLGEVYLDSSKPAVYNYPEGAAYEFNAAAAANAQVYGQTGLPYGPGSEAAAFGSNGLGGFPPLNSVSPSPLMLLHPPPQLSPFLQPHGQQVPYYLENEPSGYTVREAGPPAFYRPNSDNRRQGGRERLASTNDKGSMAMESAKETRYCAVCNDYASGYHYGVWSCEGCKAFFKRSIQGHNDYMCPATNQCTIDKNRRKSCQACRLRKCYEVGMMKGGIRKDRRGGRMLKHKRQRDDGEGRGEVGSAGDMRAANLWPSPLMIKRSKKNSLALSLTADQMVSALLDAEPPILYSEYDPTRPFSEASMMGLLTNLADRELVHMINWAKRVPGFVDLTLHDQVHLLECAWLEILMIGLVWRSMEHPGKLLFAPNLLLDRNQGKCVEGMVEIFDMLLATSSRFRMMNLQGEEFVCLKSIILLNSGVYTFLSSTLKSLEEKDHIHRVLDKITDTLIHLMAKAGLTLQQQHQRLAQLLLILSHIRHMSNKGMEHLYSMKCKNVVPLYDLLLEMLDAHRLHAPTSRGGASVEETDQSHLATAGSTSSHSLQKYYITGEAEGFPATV
Sequence of UniProt P04150 (P04150 whole entry, looked up): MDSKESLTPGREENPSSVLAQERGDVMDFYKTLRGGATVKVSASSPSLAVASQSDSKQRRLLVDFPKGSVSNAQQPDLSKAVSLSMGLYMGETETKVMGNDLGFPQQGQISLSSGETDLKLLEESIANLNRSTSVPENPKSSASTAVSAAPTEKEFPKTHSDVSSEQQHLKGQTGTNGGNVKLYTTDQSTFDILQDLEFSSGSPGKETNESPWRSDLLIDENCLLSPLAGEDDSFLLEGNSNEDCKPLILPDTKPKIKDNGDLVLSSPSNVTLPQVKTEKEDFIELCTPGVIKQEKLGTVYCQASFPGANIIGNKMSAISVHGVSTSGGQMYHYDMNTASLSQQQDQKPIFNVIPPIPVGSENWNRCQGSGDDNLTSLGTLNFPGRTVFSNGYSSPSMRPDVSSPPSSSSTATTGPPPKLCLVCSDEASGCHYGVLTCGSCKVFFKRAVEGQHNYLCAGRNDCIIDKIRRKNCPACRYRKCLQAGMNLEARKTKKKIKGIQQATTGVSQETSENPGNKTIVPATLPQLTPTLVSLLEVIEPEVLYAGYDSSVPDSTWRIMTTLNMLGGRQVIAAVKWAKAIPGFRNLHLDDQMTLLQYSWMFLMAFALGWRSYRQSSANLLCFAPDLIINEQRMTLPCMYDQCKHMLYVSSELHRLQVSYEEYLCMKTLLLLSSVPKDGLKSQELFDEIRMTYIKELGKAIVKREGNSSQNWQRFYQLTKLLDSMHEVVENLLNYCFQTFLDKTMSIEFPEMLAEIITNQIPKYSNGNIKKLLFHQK
Sequence of UniProt P37231 (P37231 whole entry, looked up): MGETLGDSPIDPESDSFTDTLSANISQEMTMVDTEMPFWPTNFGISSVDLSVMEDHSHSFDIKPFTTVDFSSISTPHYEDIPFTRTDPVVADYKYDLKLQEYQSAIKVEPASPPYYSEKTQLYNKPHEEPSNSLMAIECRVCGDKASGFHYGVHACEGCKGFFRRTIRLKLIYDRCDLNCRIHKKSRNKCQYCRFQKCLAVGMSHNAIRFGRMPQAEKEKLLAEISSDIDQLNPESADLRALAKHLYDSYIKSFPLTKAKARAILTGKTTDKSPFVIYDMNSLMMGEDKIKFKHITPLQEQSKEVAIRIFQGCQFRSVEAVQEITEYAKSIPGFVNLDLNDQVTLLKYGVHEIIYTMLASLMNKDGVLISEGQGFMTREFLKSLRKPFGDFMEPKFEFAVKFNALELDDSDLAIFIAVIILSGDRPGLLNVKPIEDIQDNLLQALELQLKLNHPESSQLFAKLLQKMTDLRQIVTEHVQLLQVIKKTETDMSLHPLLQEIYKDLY

CCCC(=O)O[C@]1(C(=O)COC(C)=O)CC[C@H]2[C@@H]3C[C@H](F)C4=CC(=O)C=C[C@]4(C)[C@@]3(F)[C@@H](O)C[C@@]21C
Potency [1]: inactive
ratio activity, negative = MMP loss [2, 20]: inconclusive: -37.6%
Potency [3]: active: 0.0043 µM [inconclusive]
Potency [4]: inconclusive: 0.0048 µM [activator, full curve]
Potency [5]: active: 29.8 µM
Potency [6]: inactive
Potency [7]: inconclusive: 0.0021 µM [rising, full curve, poor fit]
Potency [8]: inconclusive: 37.6 µM [cytotoxic, partial curve, poor fit]

C[C@H]1C[C@H]2[C@@H]3CCC4=CC(=O)C=C[C@]4(C)[C@@]3(F)[C@@H](O)C[C@]2(C)[C@@]1(O)C(=O)CCl
Potency [1]: inactive
Potency [2, 20]: active: 11.9 µM
Potency [3]: active: 0.0017 µM
Potency [4]: inconclusive: 0.0017 µM [activator]
Potency [5]: active: 23.7 µM
Potency [9]: inactive
Potency [10]: inconclusive: 0.756 µM [activator, full curve, poor fit]
Potency [11]: inactive
activity change, negative = inhibition [7]: inconclusive: 10.9%
Potency [12]: inconclusive: 9.44 µM [rising, partial curve]
Potency [8]: inconclusive: 13.3 µM [cytotoxic, partial curve, poor fit]

C#C[C@]1(OC(C)=O)CC[C@H]2[C@@H]3CCC4=CC(=O)CC[C@@H]4[C@H]3CC[C@@]21C
Potency [1]: inactive
activation [3]: inconclusive: -13.4%
Potency [4]: active: 2.13 µM
Potency [13]: active: 6.01 µM
Potency [14]: inconclusive: 21.3 µM [cytotoxic, partial curve]
Potency [6]: inactive
Potency [15]: inconclusive: 10.7 µM [cytotoxic, single point]
Potency [8]: inconclusive: 33.5 µM [cytotoxic, single point]

C[C@]12O[C@H](C[C@]1(O)CO)n1c3ccccc3c3c4c(c5c6ccccc6n2c5c31)CNC4=O
Potency [1]: active: 0.075 µM
Potency [2, 20]: active: 3.76 µM
Potency [3]: inconclusive: 8.49 µM [cytotoxic, full curve]
Potency [4]: inconclusive: 16.9 µM [cytotoxic, partial curve]
Potency [13]: active: 3.01 µM
Potency [5]: active: 0.376 µM
Potency [14]: inconclusive: 16.9 µM [cytotoxic, partial curve, poor fit]
Potency [9]: active: 11.9 µM
activation [16]: inconclusive: -7.6% [phenotype inactive]
Potency [10]: inconclusive: 8.49 µM [full curve]
Potency [15]: active: 21.3 µM
Potency [11]: inconclusive: 10.6 µM [inhibitor, partial curve]
Potency [7]: inconclusive: 11.9 µM [falling, partial curve]
Potency [12]: active: 21.1 µM
Potency [17]: inconclusive: 3.01 µM [rising, full curve]

COC1=C(OC)C(=O)C(C/C=C(\C)CC/C=C(\C)CC/C=C(\C)CC/C=C(\C)CC/C=C(\C)CC/C=C(\C)CC/C=C(\C)CC/C=C(\C)CC/C=C(\C)CCC=C(C)C)=C(C)C1=O
activation [1]: inconclusive: -3.62%
ratio activity, negative = MMP loss ([2]; at 83.2 µM (top of the series)): inactive: 3.74%
ratio activity, negative = MMP loss [2, 20]: inconclusive: -3.6%
Potency [4]: inactive
activity, negative = cytotoxicity [18]: inconclusive: -41.1%
activity change, negative = cytotoxicity [5]: inconclusive: -78.7%
Potency [11]: inactive

CC(C)C[C@@H]1NC(=O)[C@H](CCCN)NC(=O)[C@H](C(C)C)NC(=O)[C@@H]2CCCN2C(=O)[C@@H](Cc2ccccc2)NC(=O)[C@H](CC(C)C)NC(=O)[C@H](CCCN)NC(=O)[C@H](C(C)C)NC(=O)[C@@H]2CCCN2C(=O)[C@@H](Cc2ccccc2)NC1=O (cyclo(V[Orn]L[dF]PV[Orn]L[dF]P))
Potency [1]: active: 1.88 µM
Potency [2, 20]: active: 0.237 µM
Potency [3]: active: 23.9 µM [inconclusive]
Potency [4]: inconclusive: 1.34 µM [falling, full curve]
Potency [13]: active: 19 µM
Potency [5]: active: 0.0944 µM
Potency [9]: active: 1.97 µM
Potency [6]: active: 2.11 µM
activation [16]: inconclusive: -8.59% [phenotype inactive]
Potency [10]: inconclusive: 15.1 µM [rising, single point]
Potency [15]: active: 10.7 µM
Potency [11]: inconclusive: 29.8 µM [inhibitor, partial curve]
Potency [7]: inconclusive: 11.9 µM [falling, partial curve]
Potency [12]: inconclusive: 26.6 µM [cytotoxic, partial curve]
Potency [8]: inconclusive: 2.98 µM [cytotoxic, full curve]
Potency [17]: inconclusive: 13.4 µM [fluorescent, partial curve]

CCOC(=O)C1=C[C@@H](OC(CC)CC)[C@H](NC(C)=O)[C@@H](N)C1
Potency [1]: inactive
ratio activity, negative = MMP loss [2, 20]: inconclusive: 16.1%
Potency [3]: inactive
Potency [18]: inconclusive: 26.6 µM [rising, partial curve, poor fit]
Potency [12]: inconclusive: 29.8 µM [cytotoxic, partial curve, poor fit]

CC1C(=O)CC2C3(C)CCC2(C(C)C(=O)O)C(=O)C13 (stereo unspecified)
Potency [1]: inconclusive: 0.668 µM [falling, single point]
Potency [4]: inactive
Potency [9]: inactive
Potency [10]: inactive

CCC(CN)CC(C)CCNCC(O)CNCC(C)CC(CC)CN (stereo unspecified)
Potency [1]: inactive
Potency [6]: inconclusive: 0.0211 µM [rising, full curve, poor fit]

Cc1cc(-c2ccc(N=Nc3c(S(=O)(=O)O)cc4cc(S(=O)(=O)O)cc(N)c4c3O)c(C)c2)ccc1N=Nc1c(S(=O)(=O)O)cc2cc(S(=O)(=O)O)cc(N)c2c1O
Potency [1]: inconclusive: 33.5 µM [falling, partial curve, poor fit]
Potency [2, 20]: inconclusive: 18.8 µM [cytotoxic, partial curve]
activity change, negative = inhibition [4]: inconclusive: -29.6%
Potency [14]: inconclusive: 30.1 µM [cytotoxic, single point]
Potency [9]: active: 13.3 µM
Potency [6]: active: 23.7 µM
Potency [15]: inconclusive: 21.3 µM [cytotoxic, partial curve]
Potency [11]: inconclusive: 11.9 µM [inhibitor, partial curve]
Potency [7]: inconclusive: 13.3 µM [falling, partial curve]
Potency [12]: active: 21.1 µM
Potency [8]: active: 13.3 µM

CCC(=O)Oc1ccc2c(c1)CC[C@@H]1[C@@H]2CC[C@]2(C)[C@@H](OC(=O)CC)CC[C@@H]12
Potency [1]: inconclusive: 33.5 µM
Potency [2, 20]: inactive
Potency [4]: active: 4.25 µM
Potency [19]: inconclusive: 33.5 µM [cytotoxic, single point]
Potency [18]: inconclusive: 33.5 µM [cytotoxic, single point]
Potency [5]: inconclusive: 33.5 µM [cytotoxic, single point]
Potency [14]: inconclusive: 26.8 µM [cytotoxic, single point]
Potency [6]: inconclusive: 0.0944 µM [rising, partial curve]
activation [11]: active: 99.5%
